Experimental data published in ChEMBL document CHEMBL4888484, “Replenishing the malaria drug discovery pipeline: Screening and hit evaluation of the MMV Hit Generation Library 1 (HGL1) against asexual blood stage Plasmodium falciparum ,using a nano luciferase reporter read-out” (2022).
Hit rate of the full screen: of about 150,000 compounds, about 540 (0.36%) showed an effect of 50% or more. This is one part of the list.

Tested on: Plasmodium falciparum
Experiment: Primary screen in NF54 nanoGlo assay, in single point, at 2uM, 72h; a lower Z score goes with more inhibition
Format: functional, Erythrocyte
Conditions: timepoint 72 hour

Question: With `CN(C(=O)[C@@H]1CCCc2ccccc21)c1nccs1` as the compound, how does the “% Inhibition” value read?
Answer: -10%

Question: What about the Z score of the same compound?
Answer: 1.6

Question: Which results are given for `C[C@@H]1CN(C(=O)c2n[nH]c3ccc(Cl)cc23)CCN(C2CC2)C1`?
Answer: % Inhibition: 5%; Z score: -0.8

Question: With `COCCN1CCN2C(=O)[C@H](C)N(S(=O)(=O)c3ccccc3F)C[C@H]2C1=O` as the compound, how does the “% Inhibition” value read?
Answer: 6%

Question: And the Z score?
Answer: -1

Question: For `COc1ccc(-c2ccc3c(c2)C(=O)N2CC[C@H](NC(=O)N4CCOCC4)[C@H]2C(=O)N3)cc1`, which “% Inhibition” value is on record?
Answer: 33%

Question: What about the Z score of the same compound?
Answer: -3.77

Question: `Cc1nn(C)c2nc(-c3ccncc3)nc(N(C)C[C@H]3CCCCO3)c12` was tested. Which “% Inhibition” value did it give?
Answer: -5%

Question: What about the Z score of the same compound?
Answer: 0.58

Question: Which “% Inhibition” value does the source give for `COc1ccc(N2CCN(C(=O)C[C@H]3C(=O)NCCN3S(=O)(=O)c3ccc(Cl)cc3)CC2)cc1` here?
Answer: 10%

Question: What about the Z score of the same compound?
Answer: -1.3

Question: With `O=C(NS(=O)(=O)N1CCCc2ccccc21)c1ccoc1` as the compound, how does the “% Inhibition” value read?
Answer: -9%

Question: And the Z score?
Answer: 0.83

Question: `COc1ccc(OC)c(CNC(=O)c2ccc(-c3ccnc(N4CCCC4)n3)cc2)c1` was tested. Which “% Inhibition” value did it give?
Answer: 5%

Question: And the Z score?
Answer: -0.57

Question: For `Cc1ncc(CNC(=O)NCc2ccc(Br)cc2)s1`, which “% Inhibition” value is on record?
Answer: -10%

Question: What about the Z score of the same compound?
Answer: 1.62

Question: Which results are given for `Cc1cc(C(=O)N2CCCc3ccccc32)ccc1N(C)S(C)(=O)=O`?
Answer: % Inhibition: -4%; Z score: 0.52

Question: Which results are given for `Cc1ccc(NC(=O)c2ccc(C)nc2C2CCN(S(=O)(=O)c3ccccc3)CC2)cc1`?
Answer: % Inhibition: -5%; Z score: 0.96

Question: With `COc1ccc(/C=C/CN2CC[C@](C)(O)[C@@H](O)C2)cc1` as the compound, how does the “% Inhibition” value read?
Answer: -5%

Question: What about the Z score of the same compound?
Answer: 0.98

Question: How did the “% Inhibition” value turn out when `Cc1nc(N2CCn3c(nc(C)c3C)C2)c2cnn(C)c2n1` was run?
Answer: -7%

Question: What about the Z score of the same compound?
Answer: 1.11

Question: What does the source list for `CC[C@H](C)C(=O)N1CCC(Cc2ccc(-c3ccccc3)cc2)CC1`?
Answer: % Inhibition: -3%; Z score: 0.39

Question: Which results are given for `NC(=O)[C@H]1C[C@@H](n2nnnc2N2CCCC3(CCCCC3)CC2)C1`?
Answer: % Inhibition: 0%; Z score: -0.09

Question: For `O=C(CCc1cc2n(n1)CCCNC2)NCc1csc2c1CCCC2`, which “% Inhibition” value is on record?
Answer: -1%

Question: And the Z score?
Answer: 0.18

Question: With `CCN(CCO)C(=O)C[C@]1(c2ccccc2)CC(=O)N(Cc2cccnc2)C1=O` as the compound, how does the “% Inhibition” value read?
Answer: -5%

Question: What about the Z score of the same compound?
Answer: 0.96

Question: How did the “% Inhibition” value turn out when `Nc1ncc(-c2c(-c3ccccc3)ncn2C[C@@H]2C[C@@H]3C=C[C@@H]2C32CC2)cn1` was run?
Answer: 7%

Question: And the Z score?
Answer: -0.95

Question: For `CN(C)C(=O)N1CCC(CNC(=O)c2ccno2)CC1`, which “% Inhibition” value is on record?
Answer: 11%

Question: What about the Z score of the same compound?
Answer: -1.29

Question: Which “% Inhibition” value does the source give for `CC1(C)OC(C(=O)NC2CCCCC2)C(C(=O)NC2CCCCC2)O1` (configuration not stated) here?
Answer: 10%

Question: And the Z score?
Answer: -1.33

Question: How did the “% Inhibition” value turn out when `Cn1ncc(Br)c1CC(=O)NC1CN(c2ccc(C(F)(F)F)cc2)C1` was run?
Answer: -2%

Question: What about the Z score of the same compound?
Answer: 0.32

Question: `CC(C)[C@H](NCc1cnn(C)c1C(F)(F)F)c1nnc2ccccn12` was tested. Which “% Inhibition” value did it give?
Answer: -9%

Question: What about the Z score of the same compound?
Answer: 1.12

Question: For `CC(C)N1CCC(NC(c2ccccc2)C2CC2)C1=O` (configuration not stated), which “% Inhibition” value is on record?
Answer: 4%

Question: And the Z score?
Answer: -0.6

Question: `COc1ccc(OC)c2c1cc(C(=O)NC[C@H]1CC[C@H](C(=O)O)CC1)n2C` was tested. Which “% Inhibition” value did it give?
Answer: 2%

Question: And the Z score?
Answer: -0.24

Question: Which “% Inhibition” value does the source give for `O=C(Cc1cnccn1)N1CC[C@@]2(CCCN(CC3CCC3)C2=O)C1` here?
Answer: -4%

Question: And the Z score?
Answer: 0.41

Question: Which results are given for `CC(C)(C)C[C@H]1CN(C(=O)OC(C)(C)C)C[C@@H]1C(=O)O`?
Answer: % Inhibition: 6%; Z score: -0.75

Question: For `Cc1cc(C)c(Br)c(C(=O)N[C@H]2CCN(C(N)=O)C2)c1`, which “% Inhibition” value is on record?
Answer: -3%

Question: And the Z score?
Answer: 0.27

Question: For `CCc1ccnc(CNc2ncnc(CC)c2F)c1`, which “% Inhibition” value is on record?
Answer: 0%

Question: And the Z score?
Answer: -0.03

Question: Which results are given for `Cc1ncc(C(=O)N(C)c2cnn(C)c2)c(C2CC2)n1`?
Answer: % Inhibition: -2%; Z score: 0.33

Question: Which results are given for `CCc1nc(C)ncc1C(=O)NCc1ccc(N2CCCCC2)nc1`?
Answer: % Inhibition: -2%; Z score: 0.26

Question: With `CC1(CNC(=O)N[C@@H](c2ccccc2)[C@H](O)c2ccccc2)COC1` as the compound, how does the “% Inhibition” value read?
Answer: 11%

Question: And the Z score?
Answer: -1.87

Question: Which results are given for `NC(=O)[C@@H]1COCCN1CCc1cccnc1`?
Answer: % Inhibition: -6%; Z score: 1.08

Question: Which “% Inhibition” value does the source give for `COc1cccc(CNS(=O)(=O)c2ccc(-c3ccc(=O)[nH]n3)o2)c1` here?
Answer: -17%

Question: And the Z score?
Answer: 1.76

Question: With `CCOC(=O)[C@H]1CCCN(C(=O)c2ccc(Cl)c(N3CCCC3=O)c2)C1` as the compound, how does the “% Inhibition” value read?
Answer: -5%

Question: And the Z score?
Answer: 0.69

Question: What does the source list for `Cc1nc(N)ncc1C(=O)N1CCC[C@H](Cn2ccnc2)C1`?
Answer: % Inhibition: -7%; Z score: 0.92

Question: `c1ccc(C(c2ccccc2)n2nnnc2[C@@H](c2ccc3c(c2)OCO3)N2CCCCC2)cc1` was tested. Which “% Inhibition” value did it give?
Answer: -41%

Question: What about the Z score of the same compound?
Answer: 4.86

Question: How did the “% Inhibition” value turn out when `Cc1cc(F)ccc1S(=O)(=O)N1CCC2(CC1)CNC(=O)C2` was run?
Answer: -12%

Question: What about the Z score of the same compound?
Answer: 1.45

Question: How did the “% Inhibition” value turn out when `O=C(COc1ccc2c(c1)[C@H](c1ccccc1)N(Cc1ccccc1)CC2)NC1CC1` was run?
Answer: 14%

Question: What about the Z score of the same compound?
Answer: -1.75

Question: Which results are given for `O=c1c2c([nH]n1CCO)CN(c1ccc(-c3ccccc3)nn1)CC2`?
Answer: % Inhibition: 0%; Z score: 0.04

Question: What does the source list for `COCCCNc1cc(C#N)ccc1S(=O)(=O)N(C)CCOC`?
Answer: % Inhibition: -3%; Z score: 0.61

Question: With `Cn1cc([C@H]2CN(Cc3ccc(Cl)c(F)c3)C[C@H]2CC(=O)O)nn1` as the compound, how does the “% Inhibition” value read?
Answer: 0%

Question: What about the Z score of the same compound?
Answer: 0
